# Test results from PubChem BioAssay AID624417 (National Center for Advancing Translational Sciences (NCATS), 2012).
# The whole screen tested about 410,000 compounds, of which about 6,400 (1.6%) were called active. This list was built around the results that the source calls inconclusive (neither active nor inactive); the mix of calls is not that of the screen. Calls follow the shape of the dose curve; as a rule, active = well fitted inhibition curve with a large enough effect; inconclusive = small, poorly fitted or top-dose-only effect; inactive = no such curve, though single readings can be large or run the other way. Potencies of inconclusive entries are left out as doubtful fits.
# Target: Glucagon-like peptide 1 receptor (Homo sapiens) (UniProt P43220)
# Sequence of UniProt P43220 (P43220 whole entry, looked up): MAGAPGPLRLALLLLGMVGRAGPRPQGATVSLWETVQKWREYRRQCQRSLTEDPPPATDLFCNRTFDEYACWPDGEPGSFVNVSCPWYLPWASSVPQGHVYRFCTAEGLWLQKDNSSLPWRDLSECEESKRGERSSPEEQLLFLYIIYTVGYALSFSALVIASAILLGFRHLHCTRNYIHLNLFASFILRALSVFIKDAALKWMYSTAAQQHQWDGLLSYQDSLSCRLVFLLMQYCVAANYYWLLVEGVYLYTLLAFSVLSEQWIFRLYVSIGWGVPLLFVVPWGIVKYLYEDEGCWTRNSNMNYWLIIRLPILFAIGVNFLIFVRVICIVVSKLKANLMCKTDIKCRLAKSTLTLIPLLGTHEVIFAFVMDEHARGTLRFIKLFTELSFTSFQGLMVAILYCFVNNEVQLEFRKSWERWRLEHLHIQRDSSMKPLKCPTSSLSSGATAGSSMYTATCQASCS
# Assay: qHTS of GLP-1 Receptor Inverse Agonists (Inhibition Mode); also: nearly all actives have a fitted effect of over 55% in size
# Details: HEK293 GLP-1R CRE-luciferase, luminescence, 24 h, GLP-1R form is constitutively active; series mostly up to 38.3 µM
# Summary of the method: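 Cells are plated, allowed 12 hours at 37 deg C, then treated with compounds for 24 hr before luciferase detection reagent is added and luminescence is read after 12 min at room temperature. The HEK293 line carries constitutively active GLP-1R with a cAMP-responsive reporter.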
# Potency is read from the fitted curve at half-maximal effect; tags tell the direction and shape of the fitted curve.
row,Structure (SMILES),Potency
1,C/C(COc1ccccc1)=N\NC(=O)c1nnn(-c2nonc2N)c1-c1ccc(C)cc1,inactive
2,COCCn1c(C)cc(C(=O)COC(=O)c2c(C)nn(Cc3ccccc3)c2C)c1C,"inconclusive [inhibitor, partial curve, poor fit]"
3,CCNC(=S)N(CCc1c(C)[nH]c2ccc(Cl)cc12)Cc1ccco1,"inconclusive [inhibitor, partial curve, poor fit]"
4,CCOC(=O)[C@]12CCCC=C1N(Cc1ccc3c(c1)OCO3)C(=O)[C@H](CC(=O)NCC13CC4CC(CC(C4)C1)C3)C2,"inconclusive [inhibitor, single point]"
5,COc1ccc(-c2cn3c(n2)sc2cc(C(=O)Nc4cccc(SC)c4)ccc23)cc1,inactive
6,Cc1cccc(Nc2ncccc2C(=O)NCc2cccs2)c1C,"inconclusive [inhibitor, single point]"
7,CCOC(=O)c1c(C)c(-c2ccccc2)n(CC(=O)Nc2ccc(OCC)cc2)c1C,inactive
8,COc1ccc(NC(=O)c2ccc3c(c2)CCN3S(C)(=O)=O)cc1,inactive
9,CS(=O)(=O)N(CC(=O)Nc1cccc(F)c1)Cc1ccccc1,"inconclusive [inhibitor, single point]"
10,COc1cccc(-c2cc(C(=O)N3CCN(Cc4ccc5c(c4)OCO5)CC3)on2)c1,"inconclusive [inhibitor, partial curve, poor fit]"
11,C/C(=N\NC(=S)NCc1ccccc1)c1ccco1,"inconclusive [inhibitor, single point]"
12,Cc1cccc(-c2cnc(C(O)c3ccc(F)c(C)c3)[nH]2)c1 (stereo not given),inactive
13,CN1C[C@@H]2C(c3ccc(C(F)(F)F)cc3)C3(c4ccc(C#N)cc4)CC2(C3)[C@H]1c1ccccc1 (stereo not given in full),active: 10 µM
14,CCOc1ccc(-c2cc(C(=O)NCCCN3CCN(CC)CC3)c3ccccc3n2)cc1,"inconclusive [inhibitor, partial curve, poor fit]"
15,COc1ccc(-n2nc(C(=O)NCC(=O)NCC3CCCO3)c3ccccc3c2=O)c(OC)c1 (stereo not given),inactive
16,COc1cccc(CNC(=O)C2CCN(Cc3cc4ccccc4n3Cc3ccc(C)cc3)CC2)c1,"inconclusive [inhibitor, partial curve, poor fit]"
17,Cc1cc(N2CCN(C)CC2)nc2ccc(NC(=S)N3CCN(c4ccccn4)CC3)cc12,"inconclusive [inhibitor, partial curve, poor fit]"
18,Cc1cccc(N2C(=O)C(Cc3ccccc3)NC2=S)c1 (stereo not given),"inconclusive [inhibitor, full curve]"
19,COc1ccc2oc(=O)c(C(=O)Nc3cccc(C(=O)O)c3)cc2c1,"inconclusive [inhibitor, full curve, poor fit]"
20,CCOc1ccc(CNC(=O)Cn2ccc3cc(S(=O)(=O)N4CCCCCC4)ccc32)cc1,"inconclusive [inhibitor, partial curve, poor fit]"

row,Structure (SMILES),Potency
1,Cc1ccc(S(=O)(=O)c2cnc(-c3ccccc3)nc2N2CCN(C)CC2)cc1,"inconclusive [inhibitor, single point]"
2,CCc1ccc(NC(=O)c2ccc(NC(=O)C3CCCO3)cc2)cc1 (stereo not given),"inconclusive [inhibitor, single point]"
3,CCCCNC(=O)Cn1c2c(c(-c3ccccc3Cl)cc1=O)CCC2,inactive
4,CC(CCc1ccccc1)NS(=O)(=O)c1ccccc1 (stereo not given),"inconclusive [inhibitor, partial curve]"
5,CN1C(=O)CC(C(=O)Nc2ccc(F)cc2)SC1=Nc1ccc2c(c1)OCO2 (stereo not given),"inconclusive [inhibitor, single point]"
6,CCNC(=O)/C(C#N)=C/c1c(N2CCCCCC2)nc2c(C)cccn2c1=O,inactive
7,CCNC(=S)NN=C1c2ccccc2-c2ccccc21,"inconclusive [inhibitor, partial curve, poor fit]"
8,COC(=O)c1sccc1NC(=S)N1CCN(c2cc(C)ccc2C)CC1,"inconclusive [inhibitor, partial curve, poor fit]"
9,COc1ccc(C(=O)NC(=S)Nc2ccc(N3CCOCC3)cc2)cc1Cl,"inconclusive [inhibitor, partial curve, poor fit]"
10,CCOc1ccc(NC(=O)N(CCC(C)C)C(C)c2ccco2)cc1 (stereo not given),"inconclusive [inhibitor, single point]"
11,O=C(Nc1ccc(F)cc1F)c1ccc2c(c1)CCN2S(=O)(=O)c1ccc(Cl)cc1,"inconclusive [inhibitor, partial curve, poor fit]"
12,CC(C)(C)CN1CCC(Oc2cccc(C(=O)N3CCNC(=O)C3(C)C)c2)CC1,inactive
13,COc1ccc(-n2cc(C(=O)Nc3cc(F)ccc3F)c3ccccc3c2=O)cc1,"inconclusive [inhibitor, partial curve, poor fit]"
14,Clc1ccc(CONc2ncnc3nonc23)c(Cl)c1,"inconclusive [inhibitor, partial curve, poor fit]"
15,CN1CCN(C2=C(Cl)C(=O)C(c3cnc(N4CCCCC4)s3)=C(Cl)C2=O)CC1,inactive
16,COc1ccc(CN2c3c(Br)cccc3C(=O)CS2(=O)=O)cc1,"inconclusive [inhibitor, partial curve, poor fit]"
17,Fc1ccc(-n2nnnc2-c2cnc(-c3cccs3)nc2C(F)(F)F)cc1,"inconclusive [inhibitor, single point]"
18,CC1Cc2ccccc2N1C(=O)CCS(=O)(=O)c1cccc2nonc12 (stereo not given),"inconclusive [inhibitor, full curve, poor fit]"
19,O=C(/C=C/c1ccc(Cl)cc1)N1CCN(c2c(Cl)cccc2[N+](=O)[O-])CC1,"inconclusive [inhibitor, single point]"
20,CC(=O)c1ccc(NC(=O)CSc2nc(Nc3ccccc3)nc(N3CCOCC3)n2)cc1,"inconclusive [inhibitor, single point]"
